The target in this assay is T1, tau oligomers of 6xHis tagged human 0N4R tau (size class not specified) (human, UniProt P10636-6 1-383, biotinylated or labelled with DyLight 488/594 NHS ester, depending on the assay; sites not stated).
T1 construct: also called oTau; biotin-tau oligomers; not shown: 6xHis tag from the pET-His vector
In words: cell binding assay: 500 nM biotin-tau oligomers for 2 h on SH-SY5Y cells transfected with RFP or RAGE-RFP, streptavidin-alkaline phosphatase, BCIP/NBT staining.

B1: G82S RAGE (RFP-tagged), overexpressed in SH-SY5Y cells (receptor, human)
chain: [about 300 residues left out here]LALGILGGLGTAALLIGVILWQRRQRRGEERKAPENQEEEEERAELNQSEEPEAGESSTGGP
notes: whole, on cells; also called RAGE G82S polymorphism; not shown: RFP tag from vector pRFP-N1
As to B1, the binding result is listed as “binds”.

The values above are taken from US20250389714A1 (SEOUL NATIONAL UNIVERSITY R AND DB FOUNDATION, published 2025).
